Experimental data as given in US3980522A, “Production of a new antibiotic, calvatic acid” (Zaidan Hojin Biseibutsu Kagaku Kenkyu Kai, priority 1973, dated 1976).

Test system: Bacillus anthracis
Test: microbe, parasite or virus in culture
Format: cell-based

| SMILES | MIC [µg/mL] |
| --- | --- |
| N#CN=[N+]([O-])c1ccc(C(=O)O)cc1 [calvatic acid, p-carboxyphenylazoxycarbonitrile] | 6.25 (≈ 32.7 µM) |
| COC(=O)c1ccc([N+]([O-])=NC#N)cc1 [calvatic acid methyl ester] | < 0.78 |

Values after ≈ are worked out from the molar mass of the structure shown.
